{"source": "PubChem BioAssay AID1461", "about": "(National Center for Advancing Translational Sciences (NCATS), 2008)", "note": "Hit rate of the full screen: of about 220,000 compounds, about 2,300 (1%) were called active. The inconclusive results got no clear call from the source; some entries with a clear call stand among them for comparison. The call rests on the fitted dose curve; in most records, active means well fitted inhibition curve with a large enough effect; inconclusive means small, poorly fitted or top-dose-only effect, or effect the other way; inactive means no such curve, though single readings can be large or run the other way. Potencies of inconclusive entries are left out as doubtful fits."}
{"target": "Neuropeptide S receptor (Homo sapiens) (UniProt Q6W5P4)", "sequence (Q6W5P4 whole entry, looked up)": "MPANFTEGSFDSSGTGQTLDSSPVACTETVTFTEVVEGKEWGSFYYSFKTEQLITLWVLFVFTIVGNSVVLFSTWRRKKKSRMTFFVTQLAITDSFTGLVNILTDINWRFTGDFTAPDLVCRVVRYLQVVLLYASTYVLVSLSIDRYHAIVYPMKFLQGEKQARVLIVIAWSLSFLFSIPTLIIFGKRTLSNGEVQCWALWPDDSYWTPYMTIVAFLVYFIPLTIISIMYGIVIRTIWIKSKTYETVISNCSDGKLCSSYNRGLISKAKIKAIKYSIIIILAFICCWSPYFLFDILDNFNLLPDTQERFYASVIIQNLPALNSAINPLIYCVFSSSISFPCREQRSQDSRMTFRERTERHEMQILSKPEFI", "assay": "qHTS Assay for Antagonists of the Neuropeptide S Receptor: cAMP Signal Transduction; further: nearly all actives have a fitted effect of over 50% in size; further: potency means the concentration at half of the fitted maximal effect; tags describe the fitted curve by direction and shape; on activity change, negative = inhibition: on the % scale 0 is the no-effect control and ±100 the full control effect", "settings": "CHO-NPSR cells, cAMP TR-FRET, antagonist mode; activity change, negative = inhibition: at 38.3 µM (top of the series) unless noted"}
{"compound": "Cc1nc2ccc(S(=O)(=O)NC(C(=O)Nc3nccs3)C(C)C)cc2s1", "note": "(stereo unspecified)", "activity change, negative = inhibition": "inactive: -9.3% [at 46.1 µM]"}
{"compound": "COC(=O)c1ccc(CSc2ccc3nnc(-c4ccccc4)n3n2)o1", "Potency": "inconclusive [inhibitor, partial curve, poor fit]"}
{"compound": "Cc1c(CN(C)C)c2c(n1Cc1ccccc1)C(=O)c1ccc(Br)cc1-2", "Potency": "inconclusive [inhibitor, single point]"}
{"compound": "FC(F)C(F)(F)C1=CC(c2ccccc2)=NCCN1", "Potency": "inconclusive [inhibitor, single point]"}
{"compound": "CC(C)OCCCNC(=O)c1ccc(CS(=O)(=O)Cc2ccccc2F)o1", "activity change, negative = inhibition": "inactive: -0.479% [at 46.1 µM]"}
{"compound": "COc1ccc(CC2(C)OC(c3ccc(C)c([N+](=O)[O-])c3)=NN2C(C)=O)cc1", "note": "(stereo unspecified)", "Potency": "inconclusive [activator, single point]"}
{"compound": "CN(C1=C(NC(=O)c2ccccc2)C(=O)c2ccccc2C1=O)C1CCS(=O)(=O)C1", "note": "(stereo unspecified)", "Potency": "inconclusive [inhibitor, single point]"}
{"compound": "COc1ccccc1NC(=O)CSc1nnc(-c2ccoc2C)n1CCc1ccccc1", "Potency": "inconclusive [inhibitor, partial curve, poor fit]"}
{"compound": "Cc1cccc(OCC(O)CN2C(C)(C)CC(O)CC2(C)C)c1", "note": "(stereo unspecified)", "activity change, negative = inhibition": "inactive: 8.22% [at 46.1 µM]"}
{"compound": "Cc1cc(C)c2cc(CN(Cc3ccc4c(c3)OCO4)Cc3nnnn3Cc3ccco3)c(=O)[nH]c2c1", "Potency": "inconclusive [inhibitor, single point]"}
{"compound": "CS(=O)(=O)N1CCN(c2ccccc2NC(=O)c2ccc3ccccc3c2)CC1", "Potency": "inconclusive [inhibitor, single point]"}
{"compound": "CCOC(=O)c1ccc(NC(=O)CC2OCCN(CC)C2=O)cc1", "note": "(stereo unspecified)", "Potency": "inconclusive [inhibitor, single point]"}
{"compound": "Cc1cccc(-c2nc(=S)c3c(n2Cc2ccco2)CCCC3)c1", "Potency": "inconclusive [activator, single point]"}
{"compound": "COc1ccc(-n2c(CCc3ccccc3)nnc2SCC(=O)NCc2ccccc2)cc1", "Potency": "inconclusive [inhibitor, partial curve]"}
{"compound": "COc1ccc(S(=O)(=O)CCC(=O)NCCc2ccc(C)cc2)cc1", "activity change, negative = inhibition": "inactive: -7.72% [at 46.1 µM]"}
{"compound": "Cc1ccc(NN2C(=O)C=C(c3ccc(Cl)cc3)C2=O)cc1", "Potency": "active: 7.94 µM"}
{"compound": "COc1ccc(-c2nnc3sc(C(C)N4C(=O)c5ccccc5C4=O)nn23)cc1", "note": "(stereo unspecified)", "Potency": "inconclusive [inhibitor, partial curve, poor fit]"}
{"compound": "Cc1cc(C(F)(F)F)nn1CC(=O)NNC(=S)Nc1ccc(Cl)cc1", "activity change, negative = inhibition": "inactive: 3.86% [at 46.1 µM]"}
{"compound": "O=C(Nc1cccn(Cc2c(Cl)cccc2Cl)c1=O)c1ccc(Cl)cc1", "Potency": "inconclusive [inhibitor, single point]"}
{"compound": "COc1cc2c(C(=O)N3CCN(c4ccccc4C)CC3)c(C)oc2cc1Br", "Potency": "inconclusive [inhibitor, single point]"}
{"compound": "Nc1c(S(=O)(=O)c2cccc(Cl)c2)c2nc3ccccc3nc2n1/N=C/c1ccc(O)c(O)c1", "Potency": "inconclusive [inhibitor, single point]"}
{"compound": "CCn1c(=O)c([N+](=O)[O-])c(Cl)c2ccccc21", "Potency": "inconclusive [activator, full curve]"}
{"compound": "CC(=O)n1cc([C@@H]2C=C(C(=O)Nc3ccccc3)O[C@H](OCc3ccc(CO)cc3)C2)c2ccccc21", "Potency": "inconclusive [activator, partial curve]"}
{"compound": "COc1ccccc1C(c1nnnn1CCc1ccccc1)N1CCCCCC1", "note": "(stereo unspecified)", "Potency": "inconclusive [inhibitor, partial curve, poor fit]"}
{"compound": "CCn1c(SCC(=O)N(C)c2c(N)n(Cc3ccccc3)c(=O)[nH]c2=O)nc2ccccc21", "activity change, negative = inhibition": "inactive: -26.4%"}
{"compound": "CCCCCCOC(=O)C(C#N)c1nc2ccccc2nc1N1CCN(CC)CC1", "note": "(stereo unspecified)", "Potency": "inconclusive [inhibitor, single point]"}
{"compound": "COc1ccc(-c2c(N)nnc3c2[nH]c2ccccc23)cc1OC", "activity change, negative = inhibition": "inactive: -7.24% [at 46.1 µM]"}
{"compound": "CCCCNc1n[n+](C)c(-c2cccc(C)c2)s1", "activity change, negative = inhibition": "inactive: -19.8%"}
{"compound": "CC(C)CCN1CN(S(=O)(=O)c2cccs2)c2nc3ccccc3nc21", "activity change, negative = inhibition": "inactive: -17.1% [at 46.1 µM]"}
{"compound": "O=C(CCn1c(=S)oc2ccccc21)NC1CCCCC1", "Potency": "inconclusive [inhibitor, single point]"}
{"compound": "C=CCn1c(CNC(=O)c2ccco2)nnc1SCC(=O)N1c2ccccc2Sc2ccccc21", "activity change, negative = inhibition": "inactive: -26.2% [at 46.1 µM]"}
{"compound": "CC(C)c1ccccc1NC(=S)NN(Cc1ccccc1)c1ccccc1", "Potency": "inconclusive [inhibitor, partial curve]"}
{"compound": "Cc1sc(N(C(=O)CCc2ccccc2)c2ccc(C(=O)O)cc2)nc1-c1ccccc1", "Potency": "inconclusive [activator, partial curve]"}
{"compound": "COc1ccccc1NS(=O)(=O)c1cc(Cl)ccc1OC", "activity change, negative = inhibition": "inactive: -4.07% [at 46.1 µM]"}
{"compound": "COc1ccc(-c2nnc3ccc(SCC(=O)Nc4nc5ccccc5s4)nn23)cc1OC", "Potency": "inconclusive [inhibitor, single point]"}
{"compound": "CC1CCN(C(c2ccc(N(C)C)cc2)c2nnnn2Cc2ccc(F)cc2)CC1", "note": "(stereo unspecified)", "Potency": "inconclusive [inhibitor, partial curve, poor fit]"}
{"compound": "COc1ccc(Cn2nnnc2C(c2cc(OC)ccc2OC)N2CCC(C(N)=O)CC2)cc1", "note": "(stereo unspecified)", "Potency": "inconclusive [inhibitor, single point]"}
{"compound": "O=C(Nc1ccc(Br)c(C(F)(F)F)c1)c1ccc(C(F)(F)F)cc1", "Potency": "inconclusive [inhibitor, single point]"}
{"compound": "CCOc1ccc(NC2c3ccccc3C(=O)N2Cc2ccc3c(c2)OCO3)cc1", "note": "(stereo unspecified)", "Potency": "inconclusive [inhibitor, single point]"}
{"compound": "O=C(c1ccccc1)c1ccc(N2CCNCC2)cc1", "activity change, negative = inhibition": "inactive: -8.06% [at 46.1 µM]"}
{"compound": "Cc1nnc(SC(C)C(=O)N2CCc3ccccc32)s1", "note": "(stereo unspecified)", "activity change, negative = inhibition": "inactive: -5.47% [at 46.1 µM]"}
{"compound": "CN(C)c1ccc(CNCCC(Cc2ccccc2)c2ccco2)cc1", "note": "(stereo unspecified)", "Potency": "inconclusive [inhibitor, single point]"}
{"compound": "CCCCNS(=O)(=O)c1ccc2nc(SCC(=O)c3ccc(C#N)cc3)[nH]c2c1", "activity change, negative = inhibition": "inactive: -10.2% [at 46.1 µM]"}
{"compound": "CCCCn1ccnc1C(=O)c1ccc(S(=O)(=O)N2CCCC2)cc1", "activity change, negative = inhibition": "inactive: -14.5%"}
{"compound": "c1ccc2c(c1)OCC(c1nnc3n1-c1ccccc1SC3)O2", "note": "(stereo unspecified)", "activity change, negative = inhibition": "inactive: -13.9% [at 46.1 µM]"}
{"compound": "CC(C)OC(=O)/C(=C\\c1cccnc1)NC(=O)c1ccccc1", "Potency": "inconclusive [inhibitor, single point]"}
{"compound": "N/C(=N\\NC(=O)c1ccc(Cl)cc1)c1cnccn1", "activity change, negative = inhibition": "inactive: 21.5%"}
{"compound": "CCOCC(=O)Nc1nc2ccc(C)cc2s1", "activity change, negative = inhibition": "inactive: -1.67% [at 46.1 µM]"}
{"compound": "CCOC(=O)N1CCC(NC(=O)C2CCC(CNS(=O)(=O)c3ccc(OC)cc3)CC2)CC1", "note": "(stereo unspecified)", "activity change, negative = inhibition": "inactive: 10.3% [at 46.1 µM]"}
{"compound": "Cc1nn(Cc2ccccc2)c(C)c1/C=N/NC(=O)CNc1cccc(C(F)(F)F)c1", "Potency": "inconclusive [inhibitor, single point]"}
{"compound": "CNC(=S)N/N=C(\\C)c1ccccc1", "Potency": "inconclusive [activator, single point]"}
{"compound": "COc1cc(C(=O)Oc2cccc(Nc3ncnc4ccccc34)c2)cc(OC)c1OC", "Potency": "inconclusive [inhibitor, single point]"}
{"compound": "CC(C)Cn1c(N)c(C(=O)NCCN2CCOCC2)c2nc3ccccc3nc21", "Potency": "inconclusive [inhibitor, full curve, poor fit]"}
{"compound": "Clc1ccc(N2N=C(c3cccs3)CC2c2ccco2)cc1", "note": "(stereo unspecified)", "activity change, negative = inhibition": "inactive: 7.12% [at 46.1 µM]"}
{"compound": "CCOc1cccc2cc(-c3csc(NC(=O)CCC(=O)N4CCC(C)CC4)n3)c(=O)oc12", "Potency": "inconclusive [inhibitor, single point]"}
{"compound": "COC(=O)c1ccc2ccn(CC(=O)NC3CCCCC3)c2c1", "Potency": "inconclusive [inhibitor, single point]"}
{"compound": "CC(C)CCn1c(=O)c2ccccc2n2c(CCl)nnc12", "Potency": "inconclusive [inhibitor, single point]"}
{"compound": "Cc1cc(C)nc(N/N=C/c2ccccc2OCc2ccccc2)n1", "activity change, negative = inhibition": "inactive: -32.3%"}
{"compound": "Cc1ccc(C(=O)N/N=C\\c2ccc[nH]2)cn1", "activity change, negative = inhibition": "inactive: -9.32% [at 46.1 µM]"}
{"compound": "C=CCn1c(SCc2csc(C)n2)nc2sc3c(c2c1=O)CCCC3", "Potency": "inconclusive [inhibitor, single point]"}
{"compound": "COc1ccc2[nH]c3c(NCCN4CCCCC4)ncnc3c2c1", "Potency": "inconclusive [inhibitor, partial curve, poor fit]"}
{"compound": "COc1cc(/C=C/c2ccc3cccc(OC)c3n2)c(OC(C)=O)c([N+](=O)[O-])c1", "Potency": "inconclusive [inhibitor, single point]"}
{"compound": "CC1CCCCC1NC(=O)C1CCN(C(=O)c2sccc2-n2cccc2)CC1", "note": "(stereo unspecified)", "Potency": "inconclusive [inhibitor, single point]"}
{"compound": "Cc1ccc(Nc2nc(Cl)nc(N(C)C#N)n2)cc1", "Potency": "inconclusive [inhibitor, partial curve]"}
{"compound": "COc1ccccc1C(=O)Nc1ccc(C(=O)N2CCCC2)cc1", "activity change, negative = inhibition": "inactive: -10.9% [at 46.1 µM]"}
{"compound": "CCN(CC)S(=O)(=O)c1cc(NC(=O)c2ccc(Br)s2)ccc1C", "Potency": "inconclusive [inhibitor, single point]"}
{"compound": "O=C1c2ccccc2C(=O)N1CC1c2ccccc2CCN1S(=O)(=O)c1ccccc1", "note": "(stereo unspecified)", "Potency": "inconclusive [inhibitor, partial curve]"}
{"compound": "COc1ccc(Cl)cc1NC(=O)COC(=O)/C=C/c1c(C)nn(C2CCS(=O)(=O)C2)c1Cl", "note": "(stereo unspecified)", "activity change, negative = inhibition": "inactive: -29.2% [at 46.1 µM]"}
{"compound": "C/C(=N\\Nc1ccccc1)c1c(O)cc(C)oc1=O", "activity change, negative = inhibition": "inactive: -4%"}
{"compound": "Cc1nn(-c2ccccc2)c(C)c1C(=O)OCC(=O)NC12CC3CC(CC(C3)C1)C2", "Potency": "inconclusive [inhibitor, single point]"}
{"compound": "Cc1c(C(=O)OCc2ccccc2)[nH]c2c1C(=O)CC(c1ccco1)C2", "note": "(stereo unspecified)", "Potency": "inconclusive [activator, partial curve, poor fit]"}
